Compound in assay [1]: CCc1nc(-c2cccc(C)c2)c(-c2ccnc(NC(=O)c3ccccc3)c2)s1 [TAK-715]
The assay can be described thus: Viability of human cancer cell lines after 72 h of drug (GDSC screen). The following applies: top dose inferred. How it is done:
(§1)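 Human cancer cell lines in 384-well plates, medium with 10% serum, drug for 72 h over a 256-fold dose range (nine 2-fold or five 4-fold steps up to the top dose). Adherent lines were fixed and stained with the nucleic acid dye Syto60, suspension lines read with resazurin; signal relative to control wells, capped at 0 and 100%. One two-parameter sigmoid per drug and line, fitted in a mixed model over all curves with the slope shared within a line.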

Compound in assay [2]: Cn1cnc2c(F)c(Nc3ccc(Br)cc3Cl)c(C(=O)NOCCO)cc21 [AZD6244]
Described as above. Particulars: top dose 4 µM; screen: GDSC drug entry 1498; top dose inferred. The method, then: as §1

Drawing on the supplement of paper PMC4967469, this text covers AUC and IC50 for 56 cell lines.

IC50 is the fitted dose that halves viability relative to control wells, and lower means more sensitive; a fit beyond the top or the lowest dose is shown as a bound at that dose. AUC is the area under the same curve over the 256-fold range up to the top dose, as a fraction: 1 means no effect, lower means more sensitive. Any top dose called inferred was calculated from the reported fits. For some of these results: Where an entry number is given, a second screen of the drug exists; the two often differ. A value given as a limit tells only on which side of the number the result lay.

As usually defined, the IC50 is the concentration needed to halve the response being measured.

Regarding “8-MG-BA (glioma, adherent, top dose 20 µM)”, in assay [1], the AUC amounted to 0.919 and the IC50 was over 20 µM.

As to “22RV1 (prostate, adherent, top dose 20 µM)”, in assay [1], the AUC stood at 0.949 and the 50% inhibitory concentration (IC50) was over 20 µM.

For “42-MG-BA (glioma, adherent, top dose 20 µM)”, in assay [1], the AUC is 0.982 and the IC50 is over 20 µM.

For “201T (lung adenocarcinoma, adherent, top dose 20 µM)”, in assay [1], the AUC is 0.887 and the IC50 was over 20 µM.

Turning to “451Lu (melanoma, adherent, top dose 20 µM)”, in assay [1], the AUC was 0.98 and the IC50 was over 20 µM.

Consider “639-V (bladder, adherent, top dose 20 µM)”, for which, in assay [1], the AUC stood at 0.99 and the IC50 is over 20 µM.

“647-V (bladder, adherent, top dose 20 µM)”: in assay [1], the AUC came to 0.94 and the IC50 was over 20 µM.

Turning to “697 (lymphoblastic leukaemia, suspension, top dose 20 µM)”, in assay [1], the AUC stood at 0.736 and the IC50 worked out at 4.98 µM.

For the cell line “769-P (kidney, adherent, top dose 20 µM)”, in assay [1], the AUC was 0.826 and the IC50 came out at 13.6 µM.

Turning to “786-0 (kidney, adherent, top dose 20 µM)”, in assay [1], the AUC is 0.905 and the IC50 is over 20 µM.

Consider “5637 (bladder, adherent, top dose 20 µM)”, for which, in assay [1], the AUC is 0.946 and the IC50 is over 20 µM.

Take “8305C (thyroid, adherent, top dose 20 µM)”: in assay [1], the AUC was determined as 0.977 and the IC50 is over 20 µM.

Consider “8505C (thyroid, adherent, top dose 20 µM)”, for which, in assay [1], the AUC amounted to 0.958 and the IC50 is over 20 µM.

“23132-87 (stomach, adherent, top dose 20 µM)”: in assay [1], the AUC stood at 0.928 and the IC50 is over 20 µM.

Take A549 (lung adenocarcinoma, adherent): in assay [2], the AUC stood at 0.42 and the IC50 was determined as 0.147 µM.

Consider BALL-1 (B-cell leukaemia, suspension), for which, in assay [2], the AUC came to 0.997 and the IC50 was over 4 µM.

For BT-549 (breast, adherent), in assay [2], the AUC came to 0.844 and the IC50 is over 4 µM.

Consider CL-34 (large intestine, adherent), for which, in assay [2], the AUC came to 0.281 and the 50% inhibitory concentration (IC50) is 0.0558 µM.

As to CL-40 (large intestine, adherent), in assay [2], the AUC is 0.653 and the IC50 was 0.888 µM.

Turning to “CML-T1 (chronic myeloid leukaemia, suspension)”, in assay [2], the AUC amounted to 0.938 and the IC50 is over 4 µM.

On to “COR-L32 (small cell lung carcinoma, suspension)”, for which, in assay [2], the AUC is 0.835 and the IC50 is over 4 µM.

On to DIFI (large intestine, adherent), for which, in assay [2], the AUC came out at 0.89 and the IC50 was over 4 µM.

Regarding H2810 (mesothelioma, adherent), in assay [2], the AUC came out at 0.905 and the IC50 is over 4 µM.

For the cell line “HCC-366 (non-small cell lung carcinoma, adherent)”, in assay [2], the AUC was 0.942 and the IC50 was over 4 µM.

Regarding IGROV-1 (ovary, adherent), in assay [2], the AUC is 0.91 and the IC50 is over 4 µM.

Take JEKO-1 (B-cell lymphoma, suspension): in assay [2], the AUC amounted to 0.979 and the IC50 was over 4 µM.

In the case of JHOS-4 (ovary, adherent), in assay [2], the AUC came out at 0.905 and the IC50 is over 4 µM.

In the case of Jurkat (T-cell leukaemia, suspension), in assay [2], the AUC was 0.981 and the IC50 is over 4 µM.

As for “KARPAS-1106P (B-cell lymphoma, suspension)”, in assay [2], the AUC came out at 0.99 and the IC50 is over 4 µM.

In the case of KATOIII (stomach, semi-adherent), in assay [2], the AUC is 0.98 and the IC50 was over 4 µM.

“KNS-62 (lung squamous cell carcinoma, adherent)”: in assay [2], the AUC amounted to 0.356 and the IC50 stood at 0.0833 µM.

As for MEL-HO (melanoma, adherent), in assay [2], the AUC was determined as 0.242 and the IC50 came out at 0.0447 µM.

With “MHH-CALL-2 (B-cell leukaemia, suspension)”, in assay [2], the AUC worked out at 0.995 and the IC50 is over 4 µM.

Turning to MKN7 (stomach, adherent), in assay [2], the AUC stood at 0.882 and the IC50 was over 4 µM.

Regarding “MOLM-16 (acute myeloid leukaemia, suspension)”, in assay [2], the AUC was 0.858 and the IC50 was 2.67 µM.

For “MOLT-16 (T-cell lymphoblastic leukaemia, suspension)”, in assay [2], the AUC came to 0.931 and the IC50 was over 4 µM.

NCC010 (kidney, adherent): in assay [2], the AUC stood at 0.937 and the IC50 was over 4 µM.

Consider “NCI-H146 (small cell lung carcinoma, suspension)”, for which, in assay [2], the AUC is 0.989 and the IC50 is over 4 µM.

Consider “NCI-H508 (large intestine, semi-adherent)”, for which, in assay [2], the AUC was 0.866 and the IC50 is over 4 µM.

Regarding NCI-H835 (lung carcinoid, suspension), in assay [2], the AUC was determined as 0.981 and the IC50 was over 4 µM.

In the case of NCI-H929 (myeloma, suspension), in assay [2], the AUC came to 0.759 and the IC50 was found to be 1.21 µM.

On to “NCI-H1105 (small cell lung carcinoma, suspension)”, for which, in assay [2], the AUC turned out to be 0.988 and the 50% inhibitory concentration (IC50) is over 4 µM.

As to “NCI-H1341 (small cell lung carcinoma, suspension)”, in assay [2], the AUC was determined as 0.934 and the IC50 is over 4 µM.

Turning to “NCI-H1650 (lung adenocarcinoma, adherent)”, in assay [2], the AUC was determined as 0.932 and the IC50 was over 4 µM.

“NCI-H2066 (small cell lung carcinoma, adherent)”: in assay [2], the AUC stood at 0.903 and the IC50 is over 4 µM.

With NCI-N87 (stomach, adherent), in assay [2], the AUC was found to be 0.975 and the IC50 was over 4 µM.

For the cell line PWR-1E (prostate, adherent), in assay [2], the AUC was 0.935 and the IC50 was over 4 µM.

For RCH-ACV (B-cell leukaemia, suspension), in assay [2], the AUC is 0.987 and the IC50 was over 4 µM.

For RH-18 (rhabdomyosarcoma, adherent), in assay [2], the AUC worked out at 0.909 and the IC50 was over 4 µM.

Turning to SK-GT-2 (stomach, adherent), in assay [2], the AUC came out at 0.897 and the IC50 was over 4 µM.

Consider SK-MEL-31 (melanoma, adherent), for which, in assay [2], the AUC amounted to 0.949 and the IC50 was over 4 µM.

For SUP-B8 (B-cell leukaemia, suspension), in assay [2], the AUC turned out to be 0.971 and the IC50 is over 4 µM.

Consider TC-YIK (cervix, suspension), for which, in assay [2], the AUC came out at 0.885 and the IC50 turned out to be 3.36 µM.

On to U-266 (myeloma, semi-adherent), for which, in assay [2], the AUC amounted to 0.835 and the IC50 was over 4 µM.

Turning to “VMRC-LCD (lung adenocarcinoma, adherent)”, in assay [2], the AUC was found to be 0.989 and the IC50 is over 4 µM.

As to ZR-75-30 (breast, adherent), in assay [2], the AUC was 0.981 and the IC50 was over 4 µM.
